Measurements as given in the supplement of paper PMC7826260.
This is one part of the list. Cleavage of a single-stranded DNA pool by Rep nickase domains was read by sequencing for 1 h at 37 °C with 3 µM enzyme; only the middle of the 90-letter strands is printed. The score is log2 (uncut reads / reads without enzyme); uncut sequences lie near 0, cut ones below; no hit call is given. Shares of all reads are compared; values above 0 arise when much of the pool is cut.

How the values were obtained:
Test in all cases: uncleaved DNA left, log2 of reads against the no-enzyme library (log2 ratio); higher = less cleavage (more negative = more Rep cleavage of the k-mer); sequences stand for … in CTCGTCCG…ACCGGAGA
[1] = system: T1, Rep nickase domain of Muscovy duck circovirus
T1 sequence (protein, residues 1-111, tag omitted): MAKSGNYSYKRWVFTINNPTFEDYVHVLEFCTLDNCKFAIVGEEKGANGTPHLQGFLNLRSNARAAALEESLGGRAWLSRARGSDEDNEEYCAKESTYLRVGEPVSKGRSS
Experimental: (§1)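 A pool of 90-nt single-stranded DNAs with seven random bases just before the constant AC of the nick site (name = the seven bases) was cut by 3 µM recombinant His6-SUMO-tagged Rep nickase domain (300 nM DNA, 50 mM HEPES pH 8.0, 50 mM NaCl, 1 mM MnCl2, 1 h, 37 °C, three replicates). Uncut DNA was amplified and sequenced.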

[2] = system: T2, Rep nickase domain of banana bunchy top virus
T2 sequence (protein, residues 1-94, tag omitted): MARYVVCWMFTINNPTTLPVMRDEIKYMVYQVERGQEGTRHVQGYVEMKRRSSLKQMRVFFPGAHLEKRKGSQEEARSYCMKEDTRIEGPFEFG
Experimental: as §1

[3] = system: T3, Rep nickase domain of cabbage leaf curl virus
T3 sequence (protein, residues 1-116, tag omitted): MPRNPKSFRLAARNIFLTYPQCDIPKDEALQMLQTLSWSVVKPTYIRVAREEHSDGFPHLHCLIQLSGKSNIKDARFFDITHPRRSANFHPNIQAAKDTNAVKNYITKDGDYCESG
Experimental: as §1

[4] = system: T4, Rep nickase domain of chickpea chlorotic dwarf virus
T4 sequence (protein, residues 1-124, tag omitted): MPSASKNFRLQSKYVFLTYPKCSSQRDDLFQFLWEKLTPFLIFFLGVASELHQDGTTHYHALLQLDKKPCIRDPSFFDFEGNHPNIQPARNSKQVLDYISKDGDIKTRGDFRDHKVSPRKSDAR
Experimental: as §1

[5] = system: T5, Rep nickase domain of faba bean necrotic yellows virus
T5 sequence (protein, residues 1-98, tag omitted): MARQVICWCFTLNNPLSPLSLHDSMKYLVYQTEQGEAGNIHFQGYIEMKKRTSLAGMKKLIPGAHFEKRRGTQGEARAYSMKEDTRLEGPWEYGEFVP
Experimental: as §1

[6] = system: T6, Rep nickase domain of maize striate mosaic virus
T6 sequence (protein, residues 1-117, tag omitted): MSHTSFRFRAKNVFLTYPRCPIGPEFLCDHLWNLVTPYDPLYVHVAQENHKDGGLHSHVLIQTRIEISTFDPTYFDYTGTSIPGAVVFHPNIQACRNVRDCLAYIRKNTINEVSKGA
Experimental: as §1

[7] = system: T7, Rep nickase domain of porcine circovirus 2
T7 sequence (protein, residues 2-116, tag omitted): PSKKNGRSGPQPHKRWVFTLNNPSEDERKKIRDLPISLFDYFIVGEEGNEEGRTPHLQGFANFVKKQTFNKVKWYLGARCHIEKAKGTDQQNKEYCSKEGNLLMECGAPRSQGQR
Experimental: as §1

[8] = system: T8, Rep nickase domain of tomato yellow leaf curl virus
T8 sequence (protein, residues 1-136, tag omitted): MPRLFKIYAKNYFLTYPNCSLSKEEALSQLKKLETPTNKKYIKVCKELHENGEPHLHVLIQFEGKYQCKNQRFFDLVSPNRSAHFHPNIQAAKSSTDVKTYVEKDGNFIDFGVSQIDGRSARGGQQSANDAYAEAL
Experimental: as §1

[9] = system: T9, Rep nickase domain of wheat dwarf virus
T9 sequence (protein, residues 1-137, tag omitted): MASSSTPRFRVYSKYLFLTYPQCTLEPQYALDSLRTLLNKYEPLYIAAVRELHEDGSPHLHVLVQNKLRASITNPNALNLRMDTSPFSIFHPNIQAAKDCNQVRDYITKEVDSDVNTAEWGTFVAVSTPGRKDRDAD
Experimental: as §1

Row | Sequence | uncleaved DNA left (log2) [1] | uncleaved DNA left (log2) [2] | uncleaved DNA left (log2) [3] | uncleaved DNA left (log2) [4] | uncleaved DNA left (log2) [5] | uncleaved DNA left (log2) [6] | uncleaved DNA left (log2) [7] | uncleaved DNA left (log2) [8] | uncleaved DNA left (log2) [9]
1 | AAGTATT | -3.89 | -4.19 | -2.8 | -3.59 | -3.63 | 0.232 | -4.35 | -0.217 | -1.08
2 | TAACAAC | -0.0189 | -0.099 | -0.783 | -2.65 | -0.131 | -0.574 | -0.0539 | -0.0289 | -0.255
3 | TTTGCAG | 0.0117 | -0.0832 | -0.779 | 0.225 | -0.0173 | -1.05 | 0.202 | 0.0591 | -0.0192
4 | ACCGCCC | 0.00405 | -0.0512 | -0.115 | -0.187 | -0.0615 | -0.572 | -0.0451 | -0.174 | -0.224
5 | TTCCACG | -0.0195 | -0.0508 | -0.688 | -0.768 | 0.0555 | -1.08 | 0.0779 | -0.0623 | -0.0388
6 | AAGTTCC | -0.177 | -0.0509 | -0.044 | -0.553 | -0.0574 | -0.0755 | -2.89 | -0.0518 | -0.00406
7 | ATTGCGT | 0.0452 | -0.0299 | -0.0356 | 1.05 | 0.0238 | 0.989 | 0.0863 | 0.13 | -0.0554
8 | GTAGTTG | 0.0376 | -0.0922 | -0.00937 | 0.287 | -0.00286 | 0.188 | 0.0458 | 0.0437 | 0.101
9 | TTCGCCC | -0.167 | -0.181 | -0.0436 | -0.386 | -0.197 | -0.634 | -0.237 | -0.257 | -0.221
10 | GGTCAAT | -0.00115 | 0.0741 | 0.637 | 1.65 | -0.0178 | 2.11 | 0.0287 | 0.148 | 0.0944
11 | TGGACGA | 0.0148 | 0.00483 | 0.661 | 1.75 | -0.0983 | 1.86 | 0.104 | -0.00979 | 0.0869
12 | GGACCCA | -0.0471 | 0.0687 | 0.506 | 0.984 | 0.00554 | 2 | 0.0875 | 0.162 | -0.0467
13 | TAGCCGC | -0.0807 | -0.145 | -0.63 | -0.919 | -0.0842 | -0.991 | -0.0948 | 0.0118 | -0.18
14 | TTAGAGC | 0.0118 | -0.0637 | -0.0582 | -0.316 | -0.0367 | -0.871 | 0.204 | -0.121 | -0.0128
15 | TGGACGG | 0.0386 | 0.0581 | 0.574 | 1.62 | 0.0146 | 1.9 | 0.134 | 0.0783 | 0.105
16 | AAGTGCG | 0.0547 | -0.0168 | -0.139 | 1.12 | 0.179 | 0.924 | 0.124 | 0.0918 | 0.0151
